Experimental data reported in the supplement of paper PMC7826260.
Some of the results follow. Viral Rep nickase domains cut single-stranded DNA in vitro (1 h at 37 °C, 3 µM enzyme); the outer parts of the 90-letter strands are left off. Numbers give uncut DNA relative to the enzyme-free pool, as log2; the lower, the more was cut; hits are not called. Shares of all reads are compared; values above 0 arise when much of the pool is cut.

system: T1, Rep nickase domain of maize striate mosaic virus; assay: uncleaved DNA left, log2 of reads against the no-enzyme library (log2 ratio); higher = less cleavage (more negative = more Rep cleavage of the k-mer); sequences stand for … in CTCGTCCG…ACCGGAGA
T1 sequence (protein, residues 1-117, tag omitted): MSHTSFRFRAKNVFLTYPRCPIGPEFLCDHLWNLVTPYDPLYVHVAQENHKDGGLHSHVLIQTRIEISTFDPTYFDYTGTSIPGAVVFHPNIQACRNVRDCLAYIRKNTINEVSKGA
Method: (§1)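 A pool of 90-nt single-stranded DNAs with seven random bases just before the constant AC of the nick site (name = the seven bases) was cut by 3 µM recombinant His6-SUMO-tagged Rep nickase domain (300 nM DNA, 50 mM HEPES pH 8.0, 50 mM NaCl, 1 mM MnCl2, 1 h, 37 °C, three replicates). Uncut DNA was amplified and sequenced.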

Row | Sequence | uncleaved DNA left (log2)
1 | GAAGTTA | 0.833
2 | GGCGGGG | 1.63
3 | AGCGTGC | -0.361
4 | GCCTTAG | -0.959
5 | GGTGCAC | 2.06
6 | CCCTCCC | -0.135
7 | GAGGCGT | 0.0868
8 | TAGAGCT | -0.655
9 | GGCCGGG | 1.99
10 | TTCGAGC | 0.00925
11 | AAGGCAA | 0.651
12 | ACCAGTC | -1.33
13 | AATCATT | -0.579
14 | AGCGAGC | 0.226
15 | CATAGTC | -1.15
16 | GGTTGTA | 1.46
17 | CCCTGGG | -0.893
18 | CATAAGA | -1.08
19 | TACAAGT | -0.796
20 | GGCGAGG | 1.63

Row | Sequence | uncleaved DNA left (log2)
21 | AACGTGA | -0.694
22 | TTAGCGA | -0.973
23 | GTAGCAA | 1.69
24 | TAATGCG | 0.931
25 | AGTAAGA | -0.851
26 | CGACAAA | 0.917
27 | ACATGCC | -1.1
28 | CTTCGAG | -0.985
29 | GATCGAT | 0.883
30 | CTGGTGC | -0.944
31 | ATACAGC | -0.88
32 | ATCACTC | -0.823
33 | AACGACC | -0.0278
34 | GGTACCC | 1.71
35 | AGGGCAA | 1.88
36 | CCCGCAA | -0.801
37 | TGGGCTG | 1.78
38 | TACCAGA | -0.817
39 | AATCTTA | -0.746
40 | CCACCCG | -0.812

system: T2, Rep nickase domain of porcine circovirus 2; assay: as above
T2 sequence (protein, residues 2-116, tag omitted): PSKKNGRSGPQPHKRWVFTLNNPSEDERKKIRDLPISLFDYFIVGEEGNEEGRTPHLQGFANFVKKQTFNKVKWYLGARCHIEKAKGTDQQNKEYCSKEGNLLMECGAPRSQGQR
Method: as §1

Row | Sequence | uncleaved DNA left (log2)
41 | GAAGTTA | 0.127
42 | GGCGGGG | 0.187
43 | AGCGTGC | 0.245
44 | GCCTTAG | -0.0186
45 | GGTGCAC | 0.186
46 | CCCTCCC | -0.211
47 | GAGGCGT | 0.0948
48 | TAGAGCT | -3.17
49 | GGCCGGG | 0.127
50 | TTCGAGC | -0.0477
51 | AAGGCAA | 0.156
52 | ACCAGTC | -0.0479
53 | AATCATT | -3.19
54 | AGCGAGC | 0.101
55 | CATAGTC | -0.0521
56 | GGTTGTA | 0.039
57 | CCCTGGG | 0.173
58 | CATAAGA | 0.141
59 | TACAAGT | -1.22
60 | GGCGAGG | 0.163

Row | Sequence | uncleaved DNA left (log2)
61 | AACGTGA | 0.0139
62 | TTAGCGA | 0.101
63 | GTAGCAA | 0.136
64 | TAATGCG | 0.18
65 | AGTAAGA | -0.0559
66 | CGACAAA | 0.106
67 | ACATGCC | 0.117
68 | CTTCGAG | 0.143
69 | GATCGAT | -0.103
70 | CTGGTGC | 0.0782
71 | ATACAGC | 0.23
72 | ATCACTC | 0.00931
73 | AACGACC | 0.141
74 | GGTACCC | 0.0376
75 | AGGGCAA | 0.452
76 | CCCGCAA | -0.0366
77 | TGGGCTG | 0.11
78 | TACCAGA | -0.359
79 | AATCTTA | -0.297
80 | CCACCCG | -0.355

system: T3, Rep nickase domain of tomato golden mosaic virus; assay: as above
T3 sequence (protein, residues 1-124, tag omitted): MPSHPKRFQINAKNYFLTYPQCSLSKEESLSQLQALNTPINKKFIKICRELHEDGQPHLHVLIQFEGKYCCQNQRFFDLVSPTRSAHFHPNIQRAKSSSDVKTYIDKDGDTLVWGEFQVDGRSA
Method: as §1

Row | Sequence | uncleaved DNA left (log2)
81 | GAAGTTA | 0.126
82 | GGCGGGG | 0.0985
83 | AGCGTGC | 0.0987
84 | GCCTTAG | -0.11
85 | GGTGCAC | -0.00415
86 | CCCTCCC | -0.152
87 | GAGGCGT | 0.0238
88 | TAGAGCT | -0.00241
89 | GGCCGGG | 0.135
90 | TTCGAGC | -0.0797
91 | AAGGCAA | 0.0685
92 | ACCAGTC | -0.0306
93 | AATCATT | -0.22
94 | AGCGAGC | 0.0471
95 | CATAGTC | -0.11
96 | GGTTGTA | 0.0388
97 | CCCTGGG | -0.0216
98 | CATAAGA | 0.168
99 | TACAAGT | 0.12
100 | GGCGAGG | 0.0462

Row | Sequence | uncleaved DNA left (log2)
101 | AACGTGA | -0.0726
102 | TTAGCGA | -0.164
103 | GTAGCAA | 0.264
104 | TAATGCG | 0.0385
105 | AGTAAGA | 0.0197
106 | CGACAAA | 0.0329
107 | ACATGCC | -0.043
108 | CTTCGAG | 0.0159
109 | GATCGAT | 0.0192
110 | CTGGTGC | -0.0449
111 | ATACAGC | -0.00267
112 | ATCACTC | -0.136
113 | AACGACC | 0.0604
114 | GGTACCC | 0.0356
115 | AGGGCAA | 0.228
116 | CCCGCAA | 0.185
117 | TGGGCTG | 0.209
118 | TACCAGA | 0.0982
119 | AATCTTA | -0.0588
120 | CCACCCG | -0.0638

system: T4, Rep nickase domain of tomato yellow leaf curl virus; assay: as above
T4 sequence (protein, residues 1-136, tag omitted): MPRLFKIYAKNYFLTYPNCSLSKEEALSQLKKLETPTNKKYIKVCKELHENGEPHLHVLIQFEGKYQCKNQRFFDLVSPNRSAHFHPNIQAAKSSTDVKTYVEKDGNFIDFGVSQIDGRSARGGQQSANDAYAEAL
Method: as §1

Row | Sequence | uncleaved DNA left (log2)
121 | GAAGTTA | 0.111
122 | GGCGGGG | -0.109
123 | AGCGTGC | 0.213
124 | GCCTTAG | 0.0121
125 | GGTGCAC | 0.0847
126 | CCCTCCC | -0.235
127 | GAGGCGT | -0.0641
128 | TAGAGCT | 0.158
129 | GGCCGGG | 0.00955
130 | TTCGAGC | 0.033
131 | AAGGCAA | 4.64e-05
132 | ACCAGTC | -0.0836
133 | AATCATT | -0.09
134 | AGCGAGC | 0.0198
135 | CATAGTC | -0.184
136 | GGTTGTA | -0.0276
137 | CCCTGGG | -0.0345
138 | CATAAGA | 0.0798
139 | TACAAGT | 0.13
140 | GGCGAGG | -0.106

Row | Sequence | uncleaved DNA left (log2)
141 | AACGTGA | -0.0543
142 | TTAGCGA | -0.0643
143 | GTAGCAA | 0.143
144 | TAATGCG | -0.0235
145 | AGTAAGA | 0.0482
146 | CGACAAA | -0.0403
147 | ACATGCC | 0.0972
148 | CTTCGAG | 0.0851
149 | GATCGAT | -0.0137
150 | CTGGTGC | -0.0209
151 | ATACAGC | 0.0874
152 | ATCACTC | -0.169
153 | AACGACC | -0.0535
154 | GGTACCC | 0.136
155 | AGGGCAA | 0.198
156 | CCCGCAA | 0.00892
157 | TGGGCTG | -0.012
158 | TACCAGA | 0.129
159 | AATCTTA | -0.0984
160 | CCACCCG | -0.0687

system: T5, Rep nickase domain of wheat dwarf virus; assay: as above
T5 sequence (protein, residues 1-137, tag omitted): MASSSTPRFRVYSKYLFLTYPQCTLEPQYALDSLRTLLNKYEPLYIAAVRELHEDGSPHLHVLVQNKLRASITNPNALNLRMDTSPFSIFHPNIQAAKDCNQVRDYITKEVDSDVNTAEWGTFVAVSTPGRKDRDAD
Method: as §1

Row | Sequence | uncleaved DNA left (log2)
161 | GAAGTTA | 0.0846
162 | GGCGGGG | 0.00427
163 | AGCGTGC | 0.23
164 | GCCTTAG | -0.0594
165 | GGTGCAC | 0.0302
166 | CCCTCCC | -0.273
167 | GAGGCGT | -0.0261
168 | TAGAGCT | -0.0403
169 | GGCCGGG | 0.018
170 | TTCGAGC | -0.095
171 | AAGGCAA | 0.114
172 | ACCAGTC | -0.196
173 | AATCATT | -0.268
174 | AGCGAGC | 0.0249
175 | CATAGTC | -0.0778
176 | GGTTGTA | -0.000281
177 | CCCTGGG | 0.0525
178 | CATAAGA | 0.00153
179 | TACAAGT | -0.014
180 | GGCGAGG | 0.0471

Row | Sequence | uncleaved DNA left (log2)
181 | AACGTGA | -0.0754
182 | TTAGCGA | -0.0683
183 | GTAGCAA | 0.156
184 | TAATGCG | -0.0672
185 | AGTAAGA | -0.00545
186 | CGACAAA | 0.0857
187 | ACATGCC | 0.0079
188 | CTTCGAG | -0.0508
189 | GATCGAT | 0.0686
190 | CTGGTGC | -0.163
191 | ATACAGC | 0.0261
192 | ATCACTC | -0.0597
193 | AACGACC | 0.0918
194 | GGTACCC | 0.152
195 | AGGGCAA | 0.271
196 | CCCGCAA | -0.0394
197 | TGGGCTG | 0.102
198 | TACCAGA | -0.0319
199 | AATCTTA | -0.0145
200 | CCACCCG | -0.106
